# Measured values: the supplement of paper PMC3334620
# The full ranking holds about 33,000 sequences; the median of “E-score (-0.5 to 0.5)” is about -0.017, and the highest 2% start at about 0.3. The list shows a part of the results.
# Molecular target: T1, Sut1 (UniProt P53032)
# T1 sequence: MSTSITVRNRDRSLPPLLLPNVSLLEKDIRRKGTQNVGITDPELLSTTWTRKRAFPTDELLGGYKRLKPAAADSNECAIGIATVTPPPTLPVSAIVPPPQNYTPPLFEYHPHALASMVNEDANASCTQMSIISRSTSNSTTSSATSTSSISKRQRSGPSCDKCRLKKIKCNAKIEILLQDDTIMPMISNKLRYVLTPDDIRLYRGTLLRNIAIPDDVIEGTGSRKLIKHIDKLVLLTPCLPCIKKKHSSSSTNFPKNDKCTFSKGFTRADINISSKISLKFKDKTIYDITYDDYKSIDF
# Test: PBM E-score (8-mer binding enrichment) (E-score (-0.5 to 0.5)); higher = stronger / more preferred TF binding; most listed sequences are background and not binding sites
# Details: protein concentration: 200 nM; construct: GST-full length
# Summary of the method: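 Using PURExpress in vitro transcription/translation, GST-tagged yeast transcription factors were made in full-length or DNA-binding-domain form. These were applied at about 100-200 nM to double-stranded universal all-10-mer Agilent arrays, and bound protein was detected with fluorescent anti-GST. Scans were normalised with masliner before the Universal PBM Analysis Suite assigned E-scores to ungapped eight-base words pooled with their reverse complements.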
row,Sequence,PBM E-score
1,ACAGGGAG,-0.199
2,GGCTGTCA,-0.294
3,AGTGCAGG,-0.18
4,CCGAACTC,0.172
5,ACTGAAGA,0.146
6,AGCCGTTG,-0.0555
7,AGGGGGAG,-0.31
8,CCGTTGCC,-0.169
9,CCCGGCGC,-0.178
10,ATCTGAAT,0.109
11,ACCAATTG,-0.0713
12,ATCTGCGG,-0.143
13,CTCACAGC,-0.051
14,CACCGAAA,0.137
15,ATCCCCAG,-0.25
16,ACGCCTCC,-0.0188
17,AGAACCGG,0.127
18,AAATCCTA,0.175
19,ACCCGACG,-0.111
20,GCGCCTAA,0.0199
21,ACTAACCA,0.204
22,CATAGGAG,-0.164

row,Sequence,PBM E-score
1,AGAGATTA,-0.0385
2,AATCTTAC,0.183
3,AGTCCATA,0.034
4,CGGCAGCC,-0.0872
5,ACTCGGCT,-0.079
6,GATCCGAC,-0.0112
7,CATGGTGG,-0.223
8,GCAGACCC,-0.169
9,CGTATTCC,0.171
10,AAGCACAT,0.112
11,CTTTCCAA,-0.0248
12,AGACGTCA,-0.166
13,AACTCGGA,0.341
14,AGCTTGCA,-0.046
15,AGTCTTAC,-0.0131
16,ACGTCCGA,0.149
17,CACGAGCC,-0.162
18,AAGTTTGA,0.2
19,AATCGTGT,0.0751
20,AAGATGTC,0.0299
21,AACGCACG,0.108
22,TCACACAA,-0.13

row,Sequence,PBM E-score
1,GAATCTGA,-0.0564
2,ACAATTTA,0.217
3,GGCAGCAA,-0.129
4,AATCCCGG,0.12
5,GCGAACGA,0.0664
6,CTTCTGCA,-0.0521
7,GGCCGGCC,-0.0421
8,ACACCCTC,-0.249
9,ATGCGACA,-0.162
10,CTCCAGGC,-0.26
11,CTTGCGGC,-0.136
12,CCCTATCA,-0.141
13,ACCTATGA,-0.184
14,ACAATTGT,0.0951
15,AACCACTC,-0.0747
16,AGTAACCA,0.0894
17,AAGCATCT,-0.0157
18,CGAGCGAC,-0.00351
19,AACTAACA,0.0858
20,GTCAGTAA,0.0392
21,AATATCCG,0.233
22,AGAGCTAT,-0.27

row,Sequence,PBM E-score
1,ACCGGAAG,0.29
2,GTCTACAC,-0.0486
3,CCTACTGC,-0.18
4,CATCCCTA,-0.147
5,AGGTTCCC,-0.257
6,CAGGACGA,-0.111
7,CGCTCTAG,-0.249
8,AAACTGCA,-0.0628
9,ACGAGAAT,0.056
10,CAGTATTA,0.0764
11,CTATCCCC,-0.201
12,CGCACTAG,-0.0832
13,AATTGACC,0.0635
14,GGGACGCA,-0.381
15,AACATCCC,0.0031
16,CAACCTAC,0.0861
17,AAGTAGGG,-0.117
18,AGGGCCGG,-0.0966
19,AACTGGGC,-0.174
20,AACTTTTC,0.127
